# Data taken from article PMC4336329 (PLoS ONE, 2015).
# The campaign covered roughly 310,000 compounds. About 2,200 (0.71%) showed an effect of 50% or more. The effect is printed as a negative number. This is one part of the list.
# Molecular target: human ether-à-go-go-related gene (hERG) potassium channel (human, UniProt Q12809)
# Test: primary screen, population patch clamp on CHO cells stably expressing hERG
# Chain of human ether-à-go-go-related gene (hERG) potassium channel (Q12809 whole entry, looked up): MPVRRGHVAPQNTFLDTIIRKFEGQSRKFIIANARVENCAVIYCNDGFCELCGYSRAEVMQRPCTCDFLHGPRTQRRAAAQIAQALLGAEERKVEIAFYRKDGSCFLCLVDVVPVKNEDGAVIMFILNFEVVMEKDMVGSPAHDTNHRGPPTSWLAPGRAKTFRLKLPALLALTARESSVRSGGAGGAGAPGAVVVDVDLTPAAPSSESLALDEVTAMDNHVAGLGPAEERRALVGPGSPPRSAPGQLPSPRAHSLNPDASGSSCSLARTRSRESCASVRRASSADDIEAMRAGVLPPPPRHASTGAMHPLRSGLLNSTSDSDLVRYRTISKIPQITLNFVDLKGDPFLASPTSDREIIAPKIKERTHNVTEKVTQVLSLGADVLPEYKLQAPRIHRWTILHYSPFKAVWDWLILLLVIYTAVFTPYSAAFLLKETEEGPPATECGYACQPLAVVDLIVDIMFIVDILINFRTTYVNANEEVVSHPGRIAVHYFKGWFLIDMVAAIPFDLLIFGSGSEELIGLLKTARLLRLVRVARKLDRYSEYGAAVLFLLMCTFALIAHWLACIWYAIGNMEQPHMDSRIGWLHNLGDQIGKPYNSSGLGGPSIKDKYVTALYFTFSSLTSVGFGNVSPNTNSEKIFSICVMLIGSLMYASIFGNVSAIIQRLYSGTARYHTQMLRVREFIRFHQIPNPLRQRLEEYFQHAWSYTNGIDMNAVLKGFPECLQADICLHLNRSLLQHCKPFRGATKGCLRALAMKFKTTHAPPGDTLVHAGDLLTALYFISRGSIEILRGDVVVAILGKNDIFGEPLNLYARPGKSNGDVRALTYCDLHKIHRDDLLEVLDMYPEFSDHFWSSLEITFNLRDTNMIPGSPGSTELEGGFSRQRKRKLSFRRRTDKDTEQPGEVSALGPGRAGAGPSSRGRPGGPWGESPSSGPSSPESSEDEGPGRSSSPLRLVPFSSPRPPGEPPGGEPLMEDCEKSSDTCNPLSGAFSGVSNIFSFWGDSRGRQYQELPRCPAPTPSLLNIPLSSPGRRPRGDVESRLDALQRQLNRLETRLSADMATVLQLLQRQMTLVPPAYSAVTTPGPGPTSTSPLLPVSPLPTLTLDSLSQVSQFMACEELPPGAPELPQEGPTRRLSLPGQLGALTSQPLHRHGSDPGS
row,SMILES,"hERG current change (%, negative = inhibition) at 1uM"
1,O=C(NCc1ccc2c(c1)OCO2)c1ccc(S(=O)(=O)N2CCCCC2)cc1,-3.28%
2,O=C(COC(=O)c1ccc(O)cc1)Nc1ccc2[nH]c(=O)[nH]c2c1,3.85%
3,CNC1=CC(=O)CC(c2ccccc2)C1 (centres unmarked),12.4%
4,COCCNC(=O)Cc1ccc(Br)cc1,10.2%
5,CCOc1ccc(/C=N/NC(=O)c2cc3c(OC)cc(OC)c(OC)c3[nH]2)cc1,-5.65%
6,CCOC(=O)/C(=C/Nc1ccc(F)c(F)c1)[N+](=O)[O-],13%
7,CCN(CC)S(=O)(=O)c1cccc(-c2nnc(SCc3nnc(-c4ccccc4)o3)n2C)c1,-32.5%
8,CCOc1ccccc1NC(=O)Cn1[nH]c(=O)c2ccccc2c1=O,14.2%
9,COCCCn1nnnc1SCC(=O)N1CCCC1,-6.33%
10,Cc1ccc2nc(N3CCOCC3)c(C=O)c(=O)n2c1,11.4%
11,CCOc1ccc(/C=N/NC(N)=S)cc1,6.4%
12,CC(=O)C[C@H](O)CC(=O)[C@H]1OC(=O)CC/C=C\Cc2ccccc21,15.5%
13,CCC(CC)C(=O)N1CC(=O)Nc2ccc(F)cc2C1c1ccccc1 (centres unmarked),6.38%
14,CC(=O)Nc1ccc(Nc2nc(Cl)nc(Nc3ccc(NC(C)=O)cc3)n2)cc1,14.6%
15,COc1ccc(OC)c(NC(=O)C(CCSC)NS(=O)(=O)c2cccs2)c1 (centres unmarked),-5.09%
16,O=C(c1ccccc1)N(Cc1nc2ccccc2c(=O)[nH]1)C1CCCCC1,6.55%
17,O=C(Nc1nccs1)C1CCCN1S(=O)(=O)c1cccc2cccnc12 (centres unmarked),4.95%
18,O=C(CN1C(=O)c2ccccc2S1(=O)=O)Nc1ccccc1,-2.85%
19,CCOC(=O)CC1=NS(=O)(=O)c2ccccc2N1,14.9%

row,SMILES,"hERG current change (%, negative = inhibition) at 1uM"
1,O=C(NCc1ccc2c(c1)OCO2)C1CCC(CNS(=O)(=O)c2ccccc2)CC1 (centres unmarked),-0.201%
2,CC[C@@H](C)CN1C(=O)N[C@@H](CCc2ccccc2)C(C(C)=O)=C1C,-1.83%
3,CC(C)NC(=O)N(Cc1ccccc1)Cc1cccs1,12.8%
4,CC(=O)Oc1cccc(/C=N\NC(=O)C(=O)N/N=C/c2cccc(OC(C)=O)c2)c1,8.12%
5,COc1cc(CNCCO)cc(Br)c1OCc1cccs1.Cl,7.27%
6,CCOc1ccccc1N(CC(=O)NC(C)(C)C)C(=O)CCC(=O)Nc1nccs1,6.2%
7,Cc1cccc(C(CC(=O)NCc2ccco2)c2ccccc2)c1O (centres unmarked),-3.67%
8,CC(=O)Nc1ccc(/C=N/Nc2ccc(C(=O)c3c(C)cc4ccccn34)cc2[N+](=O)[O-])cc1,11.7%
9,C=CCn1c(O)c(N=Nc2nc3ccccc3c(=O)n2-c2ccccc2)c2ccccc21,12.3%
10,CC(NS(=O)(=O)c1c(N)n(C)c(=O)n(C)c1=O)c1ccccc1 (centres unmarked),21.5%
11,O=C(NCCCCc1ccccc1)c1cccc([N+](=O)[O-])c1,8.9%
12,COCCCNC(=O)c1ccccc1N(Cc1ccccc1)S(=O)(=O)c1ccc(OC)cc1,12.9%
13,O=C(NC12CCC(O)C(SC1)/C2=N/O)c1ccccc1 (centres unmarked),6.76%
14,CC(C)CNC(=O)CSc1nc2nn(-c3ccccc3)c(=O)c-2c2n1CCCCC2,3.92%
15,Cc1c(C(=O)OCC(=O)NCc2ccccc2)oc2ccccc12,10.9%
16,COc1ccc([N+](=O)[O-])cc1NC(=O)C(C)OC(=O)c1cccnc1 (centres unmarked),6.16%
17,COc1cc(OC)c2c(=O)cc(-c3cccnc3)oc2c1,8.68%
18,COc1ccc(OC)c(/C=C2\SC(=S)N(NS(=O)(=O)c3ccc(C)cc3)C2=O)c1,11.1%
19,CSCCC(NC(=O)c1ccc([N+](=O)[O-])cc1Cl)C(=O)OCC(=O)C12CC3CC(CC(C3)C1)C2 (centres unmarked),8.1%

row,SMILES,"hERG current change (%, negative = inhibition) at 1uM"
1,COC(=O)[C@@]1(Cc2ccccc2)C=C[C@@H](C)N1C(C)=O,12.1%
2,Cc1onc(-c2ccccc2)c1C(=O)Nc1ccc(S(=O)(=O)N2CCOCC2)cc1,9.01%
3,O=C(CSc1nnc(Cn2c(=O)sc3ccccc32)n1-c1ccccc1)NCC1CCCO1 (centres unmarked),6.6%
4,S=C(NCc1ccncc1)NC1CCCCC1,7.66%
5,Cc1nc(N2CCN(c3ccccn3)CC2)c2c(C)c(C(=O)Nc3ccc(F)cc3F)sc2n1,-4.3%
6,O=C(O)c1ccccc1OCCOCCOc1ccccc1C(=O)O,12.9%
7,O=c1cc(CO)oc(CN2CCCC2)c1O,-2.54%
8,C/C(=N\NC(=O)COc1cc(C)cc(C)c1)c1ccc(N2CCOCC2)cc1,9.1%
9,CN1CCN(S(=O)(=O)c2ccc(C(=O)Nc3ccccc3)cc2)CC1,-1.43%
10,Cc1cc(N2CCN(c3ccccc3)CC2)n2cc(-c3ccccc3)nc2n1,-16.4%
11,O=C(NCC(c1ccco1)N1CCN(c2ccccc2)CC1)c1ccco1 (centres unmarked),5.47%
12,Cc1ccc(CN2CCN(/N=C/c3ccc(O)c(O)c3)CC2)cc1,1.38%
13,O=C(CCCOc1ccc(Cl)cc1Cl)N1CCCc2ccccc21,-7.08%
14,CC(C)OCCCNc1ncc2c(n1)CC(c1ccc(N(C)C)cc1)CC2=O (centres unmarked),1.11%
15,CCCc1cc(C(=O)Nc2ccc(C(=O)OC)cc2)cs1,0.842%
16,N/C(CN1CCCCC1)=N\S(=O)(=O)c1cc(Cl)cc(Cl)c1,14%
17,CCCCCCCCC(=O)NNC(=O)c1c(O)c2ccccc2n(CC)c1=O,14.3%
18,CCC1(c2ccc(F)cc2)NC(=O)N(CC(=O)c2cc(C)n(C3CC3)c2C)C1=O (centres unmarked),-4.97%
